Sequences with one replicate were seen in a single cluster, so their values are uncertain.
System: ATP
Test: switch fluorescence ratio, 500 uM ATP over buffer (Cy3 cluster intensity, sum of 5 cycles each) (fold (ratio)); higher = stronger signal-on switching upon ATP binding; sequences stand for … in TCGTCGGCAGCGTCAGATGTGTATAAGAGACAGTTTTTTTTTTTTTTTTTTTTTTTTT…TC
Settings: aptamer strand: ATP DNA aptamer (quencher-CACCTGGGGGAGTATTGCGGAGGAAGG + anchor), 100 nM annealed; ATP concentration: 500 uM; one replicate
How it was run: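 After annealing to 100 nM quencher-labelled ATP aptamer, Cy3-labelled switching-strand clusters on a modified Illumina MiSeq flow-cell were imaged in selection buffer. A second image followed after 15 min with 500 uM ATP at 22 °C, and five such buffer/ATP cycles were done, each separated by NaOH stripping and re-annealing. The fluorescence ratio, averaged per switch-domain sequence, is summed target-cycle over summed buffer-cycle Cy3 intensity per cluster, with clusters outside 100-1000 RFU excluded.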
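Also: ATP exposure 15 min at 22 °C before imaging.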

In the case of TAGAGGCTT, the switch fluorescence ratio is reported as 0.978.
For CTTGTGGGAA, the switch fluorescence ratio was 0.98.
With TGCAAGAAAT the switch fluorescence ratio was 1.68.
AAAAAATA gave a switch fluorescence ratio of 0.995.
For TTTTGCCACT, the switch fluorescence ratio was 1.01.
TAGTCCTGTA gave a switch fluorescence ratio of 1.02.
In the case of GTGAGTGAA, the switch fluorescence ratio is reported as 0.982.
Sequence TCGATCGTTA has a switch fluorescence ratio of 1.01.
In the case of CATGATCGTT, the switch fluorescence ratio is reported as 0.956.
TAAGCAGGTA showed a switch fluorescence ratio of 1.04.
CATACTTTGC gave a switch fluorescence ratio of 0.973.
TACTCTCGAA showed a switch fluorescence ratio of 1.02.
With ATATCAGTTG the switch fluorescence ratio was 1.05.
In the case of CATGCCGTAG, the switch fluorescence ratio is reported as 1.01.
For TAACCTCTAC, the switch fluorescence ratio was 1.33.
Sequence GATCGGTCG has a switch fluorescence ratio of 0.961.
In the case of TCGTCTCCTT, the switch fluorescence ratio is reported as 1.05.
ATGGCTAAAT showed a switch fluorescence ratio of 1.01.
For ACCAGTATAA, the switch fluorescence ratio was 1.01.
With GTTATAGACT the switch fluorescence ratio was 0.998.
Sequence TGTAGAAGGG has a switch fluorescence ratio of 1.03.
Work on ACGCCTTTAC yielded a switch fluorescence ratio of 4.
With GTGATTTGAT the switch fluorescence ratio was 0.965.
Work on CGGCGCTTTA yielded a switch fluorescence ratio of 1.15.
Sequence AGAGGTACTT has a switch fluorescence ratio of 0.994.
With TGTCCAAAAT the switch fluorescence ratio was 2.05.
With TAATGAAGGT the switch fluorescence ratio was 0.966.
GACAACGTGG gave a switch fluorescence ratio of 1.03.
With TATATTGTTG the switch fluorescence ratio was 0.957.
CGTTTCAA was tested, and the switch fluorescence ratio was 1.02.
For CAGAGTGCTA, the switch fluorescence ratio was 1.02.
CCCCTTAGC showed a switch fluorescence ratio of 1.09.
For ATATGGGGCG, the switch fluorescence ratio was 1.02.
CAGACTAGAT showed a switch fluorescence ratio of 1.03.
With TTATGGATTA the switch fluorescence ratio was 0.986.
GAGGGTCCAT was tested, and the switch fluorescence ratio was 0.994.
Work on TCGTTAGGGT yielded a switch fluorescence ratio of 0.958.
Sequence CAGACAGTAC has a switch fluorescence ratio of 1.98.
GAGACGTAGG was tested, and the switch fluorescence ratio was 1.
For TAATTCATAT, the switch fluorescence ratio was 0.988.
For ACATTAATAT, the switch fluorescence ratio was 1.02.
GCGCGGGCCA was tested, and the switch fluorescence ratio was 0.967.
Work on AAAGACACGG yielded a switch fluorescence ratio of 1.09.
With GATTGCGGAG the switch fluorescence ratio was 0.955.
TTTGCGTAAT was tested, and the switch fluorescence ratio was 2.82.
For AGATGCGGCT, the switch fluorescence ratio was 0.993.
Work on TAATGTCGGC yielded a switch fluorescence ratio of 1.04.
Sequence GTATTTATGT has a switch fluorescence ratio of 0.985.
For CCGGGCCCCG, the switch fluorescence ratio was 1.53.
AGCAACTCCT gave a switch fluorescence ratio of 2.13.
AAAACAGCTA was tested, and the switch fluorescence ratio was 1.03.
Sequence ACGGTATGGA has a switch fluorescence ratio of 1.04.
Work on ATTGCATATT yielded a switch fluorescence ratio of 1.01.
With CTATTCGGCT the switch fluorescence ratio was 0.987.
Sequence AGTACGTGGC has a switch fluorescence ratio of 1.06.
Work on TACAGGTCTA yielded a switch fluorescence ratio of 0.959.
AGGACGTCGC showed a switch fluorescence ratio of 1.02.
In the case of GACTTGACTC, the switch fluorescence ratio is reported as 1.08.
In the case of TGAGCGGTC, the switch fluorescence ratio is reported as 1.16.
For GGCTCATGTA, the switch fluorescence ratio was 0.992.
ACGGAGCCCA was tested, and the switch fluorescence ratio was 1.4.
With GGCGCTGGGT the switch fluorescence ratio was 0.986.
TGGTATTGAG showed a switch fluorescence ratio of 0.97.
GTGAGAGTAT gave a switch fluorescence ratio of 0.989.
In the case of AAGGGGTAGA, the switch fluorescence ratio is reported as 1.03.
CTCACGTTCG was tested, and the switch fluorescence ratio was 1.06.
TACGCAGCTA gave a switch fluorescence ratio of 3.89.
With CCGTATATAG the switch fluorescence ratio was 1.29.
ATGTAATTGT gave a switch fluorescence ratio of 1.01.
Work on TTCTTAAAGA yielded a switch fluorescence ratio of 1.04.
CAATTCTGGA showed a switch fluorescence ratio of 0.999.
For GCATCAGTAG, the switch fluorescence ratio was 1.04.
GTCATAGGAA was tested, and the switch fluorescence ratio was 0.999.
With AGGGTTTCTA the switch fluorescence ratio was 0.987.
For GGAACTGGCT, the switch fluorescence ratio was 1.01.
Sequence ATGATAAGC has a switch fluorescence ratio of 1.13.
ACACATCCTG gave a switch fluorescence ratio of 1.03.
CGTAGAGGTC gave a switch fluorescence ratio of 0.999.
Work on CCCGACCTGG yielded a switch fluorescence ratio of 1.01.
With TATAAGGTTG the switch fluorescence ratio was 0.966.
ATCCTATCTC was tested, and the switch fluorescence ratio was 1.05.
Sequence TGAGTGTTGT has a switch fluorescence ratio of 0.945.
With CTGCTTCAAT the switch fluorescence ratio was 0.971.
Work on AATAAGATTC yielded a switch fluorescence ratio of 0.964.
In the case of TCGGCCAGGG, the switch fluorescence ratio is reported as 1.08.
In the case of AGGGAAAAGT, the switch fluorescence ratio is reported as 1.02.
Work on ATCAAAGTCG yielded a switch fluorescence ratio of 1.02.
GGGACGAAAA gave a switch fluorescence ratio of 1.16.
CGAGAGTCTT gave a switch fluorescence ratio of 1.01.
TGGAAAATCG gave a switch fluorescence ratio of 1.01.
For ATAATGTGAT, the switch fluorescence ratio was 0.966.
AGAGTCGGAT showed a switch fluorescence ratio of 1.02.
In the case of CACGGAGGG, the switch fluorescence ratio is reported as 0.965.
With CATCCATGAC the switch fluorescence ratio was 1.2.
Work on GGCCTGATAC yielded a switch fluorescence ratio of 1.5.
CACGGGAAGG gave a switch fluorescence ratio of 1.03.
In the case of TCGAGTCCAT, the switch fluorescence ratio is reported as 0.97.
With TTAGTTGTTA the switch fluorescence ratio was 0.996.
Work on TCTGAAGAG yielded a switch fluorescence ratio of 0.984.
Sequence TAAATAATCC has a switch fluorescence ratio of 1.9.
For TGAGGTTGCC, the switch fluorescence ratio was 1.06.
Sequence CGGGGAAGAG has a switch fluorescence ratio of 1.01.
In the case of CCGGAGAGAT, the switch fluorescence ratio is reported as 3.85.
GCTAATAGTA showed a switch fluorescence ratio of 0.981.
Work on TTCCCCTCGC yielded a switch fluorescence ratio of 1.1.
TACCTTGGAC gave a switch fluorescence ratio of 1.07.
Sequence TTCCAGCATA has a switch fluorescence ratio of 1.38.
With CCAAGCGTAT the switch fluorescence ratio was 1.25.
GAATGATTCG showed a switch fluorescence ratio of 0.994.
For GGGACATAGG, the switch fluorescence ratio was 0.979.
In the case of GGTCTCTCTG, the switch fluorescence ratio is reported as 1.06.
With CGGTCCATCG the switch fluorescence ratio was 1.02.
Work on CGTCCTCGAC yielded a switch fluorescence ratio of 1.02.
Sequence CTCCAGACCT has a switch fluorescence ratio of 1.39.
Sequence ACGTGAGGGA has a switch fluorescence ratio of 1.03.
For TAGCGATTTT, the switch fluorescence ratio was 1.
For CGCCCCAACA, the switch fluorescence ratio was 1.06.
For ACGGGGTAAG, the switch fluorescence ratio was 1.03.
Sequence TTTATCTCTG has a switch fluorescence ratio of 1.04.
CAAGGCAATC gave a switch fluorescence ratio of 5.93.
Sequence CAGTAACGGG has a switch fluorescence ratio of 1.07.
Work on AGGTTCGGTA yielded a switch fluorescence ratio of 0.973.
Sequence CGAATACGCA has a switch fluorescence ratio of 1.15.
Sequence TATGAAGCCA has a switch fluorescence ratio of 1.01.
TGGACTCCTA was tested, and the switch fluorescence ratio was 1.02.
With GCGAGTAGTA the switch fluorescence ratio was 1.04.
Work on ACGGGAGCGA yielded a switch fluorescence ratio of 0.985.
Work on GGATGGGACC yielded a switch fluorescence ratio of 1.
In the case of ACTACTTCCC, the switch fluorescence ratio is reported as 1.23.
For GGCAGGATGG, the switch fluorescence ratio was 0.995.
CGTACTTGTA was tested, and the switch fluorescence ratio was 1.
With AACGGAGACC the switch fluorescence ratio was 1.05.
In the case of AGACAGGGTA, the switch fluorescence ratio is reported as 1.03.
CAGGGCTTGC gave a switch fluorescence ratio of 0.974.
TCGGGCTTAC gave a switch fluorescence ratio of 1.77.
Work on GCGAGCGGTG yielded a switch fluorescence ratio of 1.01.
For GGTCCATTGC, the switch fluorescence ratio was 1.01.
AATCTTGCAG gave a switch fluorescence ratio of 1.01.
For CAGCCTGGCG, the switch fluorescence ratio was 0.984.
In the case of TAAACCCTTT, the switch fluorescence ratio is reported as 1.02.
GCGATAACTC gave a switch fluorescence ratio of 2.48.
CCATAGGTAG showed a switch fluorescence ratio of 1.02.
In the case of GTCAACTGAT, the switch fluorescence ratio is reported as 1.08.
Sequence AACTGCACGG has a switch fluorescence ratio of 1.43.
TTTTGCAGGG showed a switch fluorescence ratio of 0.994.
GGGAGCGGGG showed a switch fluorescence ratio of 1.02.
GGTCGTGAAC was tested, and the switch fluorescence ratio was 1.01.
In the case of ATTGGGACAC, the switch fluorescence ratio is reported as 1.
For CAGCTATGCT, the switch fluorescence ratio was 1.02.
In the case of CGGTAAATAG, the switch fluorescence ratio is reported as 1.12.
In the case of AATAACTTG, the switch fluorescence ratio is reported as 0.949.
For ATCTATCGCA, the switch fluorescence ratio was 1.15.
Work on CGTAGAGCAA yielded a switch fluorescence ratio of 3.06.
GTGAGCCGAG gave a switch fluorescence ratio of 1.01.
With CACTGAACGT the switch fluorescence ratio was 1.17.
Work on GGCTCATGGG yielded a switch fluorescence ratio of 1.04.
With TTTGGTCCTG the switch fluorescence ratio was 0.987.
